Here are results for 35 compounds from the supplement of paper PMC4604168 (melanoma cell lines).

This is one part of the list. Most values come without repeats; read them as rough.
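Further: cell number obtained by counting DAPI-stained nuclei in high-throughput microscope images with image analysis software, screen run in 1,536-well plates.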

The experiment concerns A2058. The experiment can be described thus: cell count relative to DMSO control; melanoma cells; higher = more viable cells. To be noted: library dose: low library concentration; 72 h.
As to `OCc1c[nH]c2ccccc12` [Indole-3-carbinol] + COCC[n+]1c2c(n(Cc3cnccn3)c1C)C(=O)c1ccccc1C2=O [YM155] (first compound 0.8 µM, partner dose 0.0004 µM), the cell count amounted to 79.5%. Under `OCc1c[nH]c2ccccc12` [Indole-3-carbinol] + C[C@]1(c2nc3c(C(N)=O)cccc3[nH]2)CCCN1 [Veliparib] (first compound 0.8 µM, partner dose 1.4 µM) stands 93%; under `OCc1c[nH]c2ccccc12` [Indole-3-carbinol] + C#Cc1cccc(Nc2ncnc3cc(OCCOC)c(OCCOC)cc23)c1 [erlotinib] (first compound 0.8 µM, partner dose 0.8 µM), 97%; under `C#Cc1cccc(Nc2ncnc3cc(OCCOC)c(OCCOC)cc23)c1` [erlotinib] + Cn1nnc2c(C(N)=O)ncn2c1=O [temozolomide] (first compound 0.8 µM, partner dose 2 µM), 77.6%. As for `C#Cc1cccc(Nc2ncnc3cc(OCCOC)c(OCCOC)cc23)c1` [erlotinib] + Cc1nc(Nc2ncc(C(=O)Nc3c(C)cccc3Cl)s2)cc(N2CCN(CCO)CC2)n1 [dasatanib] (first compound 0.8 µM, partner dose 0.004 µM), the figure is 79.5%; as for `Cn1c(Nc2ccc(C(F)(F)F)cc2)nc2cc(Oc3ccnc(-c4ncc(C(F)(F)F)[nH]4)c3)ccc21` + Cn1nnc2c(C(N)=O)ncn2c1=O [temozolomide] (first compound 0.08 µM, partner dose 2 µM), 73.6%; as for `COCC[n+]1c2c(n(Cc3cnccn3)c1C)C(=O)c1ccccc1C2=O` + C[C@]1(c2nc3c(C(N)=O)cccc3[nH]2)CCCN1 [Veliparib] (first compound 0.0004 µM, partner dose 1.4 µM), 63.3%. Under `OCc1c[nH]c2ccccc12` [Indole-3-carbinol] + COc1cc(Nc2ncc(F)c(Nc3ccc4c(n3)NC(=O)C(C)(C)O4)n2)cc(OC)c1OC [Tamatinib] (first compound 0.8 µM, partner dose 0.4 µM) stands 88.6%; under `Clc1ccc(Nc2nnc(Cc3ccncc3)c3ccccc23)cc1` [vatalanib] + C[C@@H]1CCN(C(=O)CC#N)C[C@@H]1N(C)c1ncnc2[nH]ccc12 [CP690550] (first compound 2 µM, partner dose 1 µM), 90.3%; under `C#Cc1cccc(Nc2ncnc3cc(OCCOC)c(OCCOC)cc23)c1` [erlotinib] + COCC[n+]1c2c(n(Cc3cnccn3)c1C)C(=O)c1ccccc1C2=O [YM155] (first compound 0.8 µM, partner dose 0.0004 µM), 87.3%. Take `Clc1ccc(Nc2nnc(Cc3ccncc3)c3ccccc23)cc1` [vatalanib] + COCC[n+]1c2c(n(Cc3cnccn3)c1C)C(=O)c1ccccc1C2=O [YM155] (first compound 2 µM, partner dose 0.0004 µM): the cell count came to 95.9%. The compound `OCc1c[nH]c2ccccc12` [Indole-3-carbinol] + COc1ccc(Cl)c(Nc2nc3ccccc3nc2NS(=O)(=O)c2cccc(NC(=O)C(C)(C)N)c2)c1 [XL147] (first compound 0.8 µM, partner dose 0.8 µM) showed a cell count of 85.5%. As to `Nc1cccc2c1CN(C1CCC(=O)NC1=O)C2=O` (stereo not given) [lenalidomide] + C[C@]1(c2nc3c(C(N)=O)cccc3[nH]2)CCCN1 [Veliparib] (first compound 1 µM, partner dose 1.4 µM), the cell count stood at 106%. `COCC[n+]1c2c(n(Cc3cnccn3)c1C)C(=O)c1ccccc1C2=O` + O=C(CCCCCCC(=O)Nc1ccccc1)NO [vorinostat] (first compound 0.0004 µM, partner dose 0.08 µM) returned a cell count of 62.7%. Under `OCc1c[nH]c2ccccc12` [Indole-3-carbinol] + Cn1c(Nc2ccc(C(F)(F)F)cc2)nc2cc(Oc3ccnc(-c4ncc(C(F)(F)F)[nH]4)c3)ccc21 [CHIR265] (first compound 0.8 µM, partner dose 0.08 µM) stands 93.8%; under `COCC[n+]1c2c(n(Cc3cnccn3)c1C)C(=O)c1ccccc1C2=O` + Nc1cccc2c1CN(C1CCC(=O)NC1=O)C2=O [lenalidomide] (first compound 0.0004 µM, partner dose 1 µM), 69.3%. `COCC[n+]1c2c(n(Cc3cnccn3)c1C)C(=O)c1ccccc1C2=O` + Cn1nnc2c(C(N)=O)ncn2c1=O [temozolomide] (first compound 0.0004 µM, partner dose 2 µM) had a cell count of 55.8%. As for `Clc1ccc(Nc2nnc(Cc3ccncc3)c3ccccc23)cc1` [vatalanib] + COc1ccc(Cl)c(Nc2nc3ccccc3nc2NS(=O)(=O)c2cccc(NC(=O)C(C)(C)N)c2)c1 [XL147] (first compound 2 µM, partner dose 0.8 µM), the figure is 92.1%; as for `Cn1c(Nc2ccc(C(F)(F)F)cc2)nc2cc(Oc3ccnc(-c4ncc(C(F)(F)F)[nH]4)c3)ccc21` + C[C@@H]1CCN(C(=O)CC#N)C[C@@H]1N(C)c1ncnc2[nH]ccc12 [CP690550] (first compound 0.08 µM, partner dose 1 µM), 81.8%; as for `Clc1ccc(Nc2nnc(Cc3ccncc3)c3ccccc23)cc1` [vatalanib] + Cc1nc(Nc2ncc(C(=O)Nc3c(C)cccc3Cl)s2)cc(N2CCN(CCO)CC2)n1 [dasatanib] (first compound 2 µM, partner dose 0.004 µM), 71.6%. `C#Cc1cccc(Nc2ncnc3cc(OCCOC)c(OCCOC)cc23)c1` [erlotinib] + Nc1cccc2c1CN(C1CCC(=O)NC1=O)C2=O [lenalidomide] (first compound 0.8 µM, partner dose 1 µM) registered a cell count of 90.5%.

For the compound `Clc1ccc(Nc2nnc(Cc3ccncc3)c3ccccc23)cc1` [vatalanib] + Cn1nnc2c(C(N)=O)ncn2c1=O [temozolomide] (first compound 2 µM, partner dose 2 µM), the cell count was determined as 83.8%. Under `Clc1ccc(Nc2nnc(Cc3ccncc3)c3ccccc23)cc1` [vatalanib] + C[C@]1(c2nc3c(C(N)=O)cccc3[nH]2)CCCN1 [Veliparib] (first compound 2 µM, partner dose 1.4 µM) stands 98.4%; under `C#Cc1cccc(Nc2ncnc3cc(OCCOC)c(OCCOC)cc23)c1` [erlotinib] + C[C@]1(c2nc3c(C(N)=O)cccc3[nH]2)CCCN1 [Veliparib] (first compound 0.8 µM, partner dose 1.4 µM), 90.9%; under `OCc1c[nH]c2ccccc12` [Indole-3-carbinol] + Cn1nnc2c(C(N)=O)ncn2c1=O [temozolomide] (first compound 0.8 µM, partner dose 2 µM), 85.8%. In turn, `Cn1c(Nc2ccc(C(F)(F)F)cc2)nc2cc(Oc3ccnc(-c4ncc(C(F)(F)F)[nH]4)c3)ccc21` + Nc1cccc2c1CN(C1CCC(=O)NC1=O)C2=O [lenalidomide] (first compound 0.08 µM, partner dose 1 µM) came in with a cell count of 60.7%. `Nc1cccc2c1CN(C1CCC(=O)NC1=O)C2=O` (stereo not given) [lenalidomide] + Cn1nnc2c(C(N)=O)ncn2c1=O [temozolomide] (first compound 1 µM, partner dose 2 µM) yielded a cell count of 82.8%. `O=C(CCCCCCC(=O)Nc1ccccc1)NO` [vorinostat] + COc1cc(Nc2ncc(F)c(Nc3ccc4c(n3)NC(=O)C(C)(C)O4)n2)cc(OC)c1OC [Tamatinib] (first compound 0.08 µM, partner dose 0.4 µM) registered a cell count of 91.7%. `Cn1c(Nc2ccc(C(F)(F)F)cc2)nc2cc(Oc3ccnc(-c4ncc(C(F)(F)F)[nH]4)c3)ccc21` + Cn1cncc1[C@@](N)(c1ccc(Cl)cc1)c1ccc2c(c1)c(-c1cccc(Cl)c1)cc(=O)n2C [tipifarnib] (first compound 0.08 µM, partner dose 0.01 µM) had a cell count of 76.1%. As to `C#Cc1cccc(Nc2ncnc3cc(OCCOC)c(OCCOC)cc23)c1` [erlotinib] + Cn1c(Nc2ccc(C(F)(F)F)cc2)nc2cc(Oc3ccnc(-c4ncc(C(F)(F)F)[nH]4)c3)ccc21 [CHIR265] (first compound 0.8 µM, partner dose 0.08 µM), the cell count was determined as 70.1%. As for `Clc1ccc(Nc2nnc(Cc3ccncc3)c3ccccc23)cc1` [vatalanib] + C#Cc1cccc(Nc2ncnc3cc(OCCOC)c(OCCOC)cc23)c1 [erlotinib] (first compound 2 µM, partner dose 0.8 µM), the figure is 91%; as for `OCc1c[nH]c2ccccc12` [Indole-3-carbinol] + Nc1cccc2c1CN(C1CCC(=O)NC1=O)C2=O [lenalidomide] (first compound 0.8 µM, partner dose 1 µM), 104%; as for `Clc1ccc(Nc2nnc(Cc3ccncc3)c3ccccc23)cc1` [vatalanib] + Cn1c(Nc2ccc(C(F)(F)F)cc2)nc2cc(Oc3ccnc(-c4ncc(C(F)(F)F)[nH]4)c3)ccc21 [CHIR265] (first compound 2 µM, partner dose 0.08 µM), 84.5%. On to `Cn1c(Nc2ccc(C(F)(F)F)cc2)nc2cc(Oc3ccnc(-c4ncc(C(F)(F)F)[nH]4)c3)ccc21` + C[C@]1(c2nc3c(C(N)=O)cccc3[nH]2)CCCN1 [Veliparib] (first compound 0.08 µM, partner dose 1.4 µM), for which the cell count came to 82.6%. As for `OCc1c[nH]c2ccccc12` [Indole-3-carbinol] + Cc1nc(Nc2ncc(C(=O)Nc3c(C)cccc3Cl)s2)cc(N2CCN(CCO)CC2)n1 [dasatanib] (first compound 0.8 µM, partner dose 0.004 µM), the figure is 76.7%.
